# PMC12820563
# The list shows a part of the results. The list includes weakly bound sequences.
# Molecular target: T1, MBP-FoxP3dN (UniProt Q99JB6)
# T1 sequence: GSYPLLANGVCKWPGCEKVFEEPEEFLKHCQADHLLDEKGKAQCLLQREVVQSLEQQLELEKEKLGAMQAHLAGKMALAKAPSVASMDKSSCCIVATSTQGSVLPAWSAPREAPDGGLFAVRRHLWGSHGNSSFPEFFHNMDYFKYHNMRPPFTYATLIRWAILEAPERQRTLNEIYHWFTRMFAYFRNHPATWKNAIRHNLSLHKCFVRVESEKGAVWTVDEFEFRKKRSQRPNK
# Assay: PD-seq (MBP pull-down with sequencing)
# Settings: 20 mM Tris-HCl pH 7.5, 100 mM NaCl, 1.5 mM MgCl2, 0.4 uM protein, 0.1 uM dsDNA library, 30 min, room temperature, amylose pull-down; high values mean tight binding; double strand, one strand shown
row,Sequence,binding signal (RPM ratio (pull-down/input))
1,GATGATTGTTCTCCCAGCTGATGAATTCAGTAAATCGAGTAAACAAATTTTCCTAATCTTTCTGTTCAAGCGCCATCTAC,0.327
2,GATGATTGTTCTCCCAGCTGATGAATTTTGTCACTCGAGTAAACAAATTTTCCTAATCTTTCTGTTCAAGCGCCATCTAC,3.67
3,GATGATTGTTCTCCCAGCTGATGAATTAGTTTTCTCGAGTAAACAAATTTTCCTAATCTTTCTGTTCAAGCGCCATCTAC,4.62
4,GATGATTGTTCTCCCAGCTGATGAATTTGGTGACTCGAGTAAACAAATTTTCCTAATCTTTCTGTTCAAGCGCCATCTAC,1.57
5,GATGATTGTTCTCCCAGCTGATGAATTGCAATTTTCGAGTAAACAAATTTTCCTAATCTTTCTGTTCAAGCGCCATCTAC,1.59
6,GATGATTGTTCTCCCAGCTGATGAATTCCCTTCATCGAGTAAACAAATTTTCCTAATCTTTCTGTTCAAGCGCCATCTAC,0.33
7,GATGATTGTTCTCCCAGCTGATGAATTGTGATCGTCGAGTAAACAAATTTTCCTAATCTTTCTGTTCAAGCGCCATCTAC,1.03
8,GATGATTGTTCTCCCAGCTGATGAATTGCCTTCTTCGAGTAAACAAATTTTCCTAATCTTTCTGTTCAAGCGCCATCTAC,0.882
9,GATGATTGTTCTCCCAGCTGATGAATTCCACAGGTCGAGTAAACAAATTTTCCTAATCTTTCTGTTCAAGCGCCATCTAC,0.209
10,GATGATTGTTCTCCCAGCTGATGAATTGTCGTTGTCGAGTAAACAAATTTTCCTAATCTTTCTGTTCAAGCGCCATCTAC,1.11
11,GATGATTGTTCTCCCAGCTGATGAATTACGATACTCGAGTAAACAAATTTTCCTAATCTTTCTGTTCAAGCGCCATCTAC,0.847
12,GATGATTGTTCTCCCAGCTGATGAATTATAAAATTCGAGTAAACAAATTTTCCTAATCTTTCTGTTCAAGCGCCATCTAC,0.28
13,GATGATTGTTCTCCCAGCTGATGAATTTGACCTCTCGAGTAAACAAATTTTCCTAATCTTTCTGTTCAAGCGCCATCTAC,0.499
14,GATGATTGTTCTCCCAGCTGATGAATTCCGTCCCTCGAGTAAACAAATTTTCCTAATCTTTCTGTTCAAGCGCCATCTAC,0.774
15,GATGATTGTTCTCCCAGCTGATGAATTGGTACTATCGAGTAAACAAATTTTCCTAATCTTTCTGTTCAAGCGCCATCTAC,0.703
16,GATGATTGTTCTCCCAGCTGATGAATTGCGGTACTCGAGTAAACAAATTTTCCTAATCTTTCTGTTCAAGCGCCATCTAC,0.981

row,Sequence,binding signal (RPM ratio (pull-down/input))
1,GATGATTGTTCTCCCAGCTGATGAATTCGATGGGTCGAGTAAACAAATTTTCCTAATCTTTCTGTTCAAGCGCCATCTAC,1.24
2,GATGATTGTTCTCCCAGCTGATGAATTTTCTACTTCGAGTAAACAAATTTTCCTAATCTTTCTGTTCAAGCGCCATCTAC,0.267
3,GATGATTGTTCTCCCAGCTGATGAATTACGTACCTCGAGTAAACAAATTTTCCTAATCTTTCTGTTCAAGCGCCATCTAC,0.718
4,GATGATTGTTCTCCCAGCTGATGAATTTAGCCAATCGAGTAAACAAATTTTCCTAATCTTTCTGTTCAAGCGCCATCTAC,0.774
5,GATGATTGTTCTCCCAGCTGATGAATTACAGACATCGAGTAAACAAATTTTCCTAATCTTTCTGTTCAAGCGCCATCTAC,0.5
6,GATGATTGTTCTCCCAGCTGATGAATTCGGCAAGTCGAGTAAACAAATTTTCCTAATCTTTCTGTTCAAGCGCCATCTAC,1.34
7,GATGATTGTTCTCCCAGCTGATGAATTTCCGCATTCGAGTAAACAAATTTTCCTAATCTTTCTGTTCAAGCGCCATCTAC,6.24
8,GATGATTGTTCTCCCAGCTGATGAATTGTGAGAGTCGAGTAAACAAATTTTCCTAATCTTTCTGTTCAAGCGCCATCTAC,0.48
9,GATGATTGTTCTCCCAGCTGATGAATTGATCTAGTCGAGTAAACAAATTTTCCTAATCTTTCTGTTCAAGCGCCATCTAC,0.257
10,GATGATTGTTCTCCCAGCTGATGAATTTTCAGAATCGAGTAAACAAATTTTCCTAATCTTTCTGTTCAAGCGCCATCTAC,0.168
11,GATGATTGTTCTCCCAGCTGATGAATTCCTGAGTTCGAGTAAACAAATTTTCCTAATCTTTCTGTTCAAGCGCCATCTAC,0.348
12,GATGATTGTTCTCCCAGCTGATGAATTTAAGAGATCGAGTAAACAAATTTTCCTAATCTTTCTGTTCAAGCGCCATCTAC,0.24
13,GATGATTGTTCTCCCAGCTGATGAATTTCACCTATCGAGTAAACAAATTTTCCTAATCTTTCTGTTCAAGCGCCATCTAC,0.392
14,GATGATTGTTCTCCCAGCTGATGAATTATAACAGTCGAGTAAACAAATTTTCCTAATCTTTCTGTTCAAGCGCCATCTAC,0.592
15,GATGATTGTTCTCCCAGCTGATGAATTGTAATTCTCGAGTAAACAAATTTTCCTAATCTTTCTGTTCAAGCGCCATCTAC,0.973
16,GATGATTGTTCTCCCAGCTGATGAATTACATCTATCGAGTAAACAAATTTTCCTAATCTTTCTGTTCAAGCGCCATCTAC,0.703
